# The whole screen tested about 420,000 compounds, of which about 50,000 (12%) were called active. This list was built around the results that the source calls inconclusive (neither active nor inactive); the mix of calls is not that of the screen. Calls come from the whole dose curve; as a rule, active = well fitted inhibition curve with a large enough effect; inconclusive = small, poorly fitted or top-dose-only effect; inactive = flat fitted curve, though single readings scatter. Potencies of inconclusive entries are left out as doubtful fits.
# Test: qHTS for Inhibitors of human tyrosyl-DNA phosphodiesterase 1 (TDP1): qHTS in cells in presence of CPT; note: nearly all actives have a fitted effect of over 55% in size
# Conditions: chicken DT40 Tdp1-/-;hTDP1 cells + 20 nM CPT, ATP luminescence, 48 h; activity change, negative = growth inhibition: at 46.2 µM (top of the series) unless noted
# Method in brief: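 Chicken DT40 Tdp1-/- cells complemented with human TDP1, 400 cells/well, exposed to compounds plus 20 nM camptothecin for at least 48 h at 37 C; viability read as ATP content by CellTiter-Glo luminescence.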
# % is set by controls: 0 for no effect and ±100 for the full control effect; potency is the fitted concentration of half-maximal effect; tags give direction and shape of the fitted curve.
SMILES,Potency,"activity change, negative = growth inhibition"
COc1ccc(-c2cc(C(=O)Nc3ccc(OC)c(OC)c3)[nH]n2)c(C)c1,"inconclusive [inhibitor, partial curve]",–
COc1cc(C(C)=O)ccc1OCC(=O)NCC1(N2CCCCC2)CCCCC1,–,inactive: -16.4%
Cc1cccc(-n2ncc3c(Nc4c(C)cc(C)cc4C)ncnc32)c1,active: 3.26 µM,–
CCc1[nH]c(=S)c(C#N)c(-c2ccccc2)c1C(=O)OC,–,inactive: -17.9%
CCOCCCn1c(=N)c(C(=O)NC2CCCC2)cc2c(=O)n3cccc(C)c3nc21,"inconclusive [inhibitor, single point]",–
C#CCOCCOCCOCCNc1nc(N2CCN(C(=O)CCCCCCCCCCNC(=O)Cn3cc(CCCCCN)nn3)CC2)nc(N2CCN(C(=O)CCCCCCCCCCNC(=O)[C@@H]([C@H](C)O)n3cc(C)nn3)CC2)n1,"inconclusive [inhibitor, single point]",–
COCCCNc1nc2nonc2nc1N1CCN(Cc2cccc(C)c2)CC1,"inconclusive [inhibitor, single point]",–
Cc1nnc2c3ccccc3nc(N3CCN(c4cccc(Cl)c4)CC3)n12,active: 13 µM,–
COc1cc(/C=C/C(=O)OCC(=O)N2c3ccccc3NC(=O)C2(C)C)cc(OC)c1OC,active: 18.4 µM,–
CCc1ccc(NC(=O)c2ccc3c(c2)c(C)c(C)n3Cc2ccccc2)cc1,active: 5.8 µM,–
CN(CC(=O)N1CCc2ccccc2C1)S(=O)(=O)c1ccc2c(c1)c(=O)n(C)c(=O)n2C,–,inactive: 4.55%
COc1cc(OC)c2ccc(=O)oc2c1C(CC(=O)N1CCN(c2ccccc2)CC1)c1ccc2c(c1)OCO2 (stereo not given),"inconclusive [inhibitor, single point]",–
COc1ccccc1CNC(=O)CN1C(=O)CCCc2ccccc21,–,inactive: -15.6%
COC(=O)c1ccc2nc(-c3ccc(OC)c(OC)c3)c(Cc3ccccc3)n2c1,active: 23.1 µM,–
O=C(NC(c1ccccc1)c1ccc2ccccc2n1)C1CCN(CCOc2ccc(Cl)cc2Cl)CC1 (stereo not given),"inconclusive [inhibitor, single point]",–
O=C1CSc2ccc(S(=O)(=O)N3CCN(c4ccccc4F)CC3)cc2N1,"inconclusive [inhibitor, single point]",–
CC(C)(C)OC(=O)N(CCc1ccccc1)Cc1ccc(OCc2cccc(NC(=O)C3CC3)c2)cc1,active: 5.8 µM,–
Clc1ccc(-n2nnc(-c3cccnc3Cl)n2)cn1,"inconclusive [inhibitor, single point]",–
CCCCC(=O)N/N=C/c1sccc1C,–,inactive: 30.8%
C=CCn1c(C)nc2c(sc3nc4c(cc32)COC(C)(C)C4)c1=O,"inconclusive [inhibitor, single point]",–
COC(=O)CNC(=O)C1CC(=O)N(CCc2ccc(F)cc2)C1 (stereo not given),–,inactive: 11%
O=C(CCC1N=C2c3ccccc3N=C(SCc3cccc(F)c3)N2C1=O)NCc1ccc(F)cc1 (stereo not given),"inconclusive [inhibitor, single point]",–
CCOC(=O)[C@H]1[C@H]2COc3ccc(OC)cc3[C@@H]2N2C(=O)CN(Cc3ccc(C)cc3)C(=O)[C@@]12C,"inconclusive [inhibitor, single point]",–
COc1ccccc1N1C(=N)S/C(=C\c2ccc(-c3ccccc3C(=O)O)o2)C1=O,–,inactive: -1.72%

SMILES,Potency,"activity change, negative = growth inhibition"
O=S(=O)(Nc1ccc(Br)cc1)c1ccc2nc(-c3ccccc3)[nH]c2c1,"inconclusive [inhibitor, partial curve]",–
Cc1nnc(NC(=O)c2cccc(S(=O)(=O)N3CCCC3)c2)s1,–,inactive: 1.22%
CCC1(C)Cc2ccccc2-c2nc(NCCCO)n(-c3ccccc3)c(=O)c21 (stereo not given),active: 2.06 µM,–
CC(=O)c1ccc(NC(=O)c2ccc(CN3C(=O)CCn4nc(C)cc43)cc2)cc1,–,inactive: -10.2%
Cc1ccsc1C1C(C#N)=C(N)OC2=C1C(=O)CC(C)C2 (stereo not given),"inconclusive [inhibitor, partial curve]",–
COc1ccc(S(=O)(=O)NCCc2cn3ccsc3n2)cc1,–,inactive: 3.61%
COc1ccc(OC)c(NC(=O)c2ccccc2N(C)S(=O)(=O)c2ccc(C)cc2)c1,"inconclusive [inhibitor, single point]",–
Cc1ccc(S(=O)(=O)Nc2ccc3c(c2)c(C(=O)OC(C)C)c(C)n3S(=O)(=O)c2ccc(C)cc2)cc1,"inconclusive [inhibitor, single point]",–
Nc1nc(N)c(Cc2ccc(Cl)cc2Cl)c(N)n1,active: 25.9 µM,–
CN(C)C(=O)c1cccc(-c2cnc3c(NC=O)cc(-c4cccc(F)c4)cn23)c1,active: 20.6 µM,–
CC(C)n1nc(C(=O)OCC(=O)c2c[nH]c3ccccc23)c2ccccc2c1=O,"inconclusive [inhibitor, single point]",–
O=[N+]([O-])c1ccc(C(S(=O)(=O)Cc2ccccc2)S(=O)(=O)Cc2ccccc2)cc1,"inconclusive [inhibitor, single point]",–
CCc1ccc(NC(=O)Cn2nnc(C(=O)Nc3cc(C)ccc3OC)c2N)cc1,–,inactive: -29.2%
Cc1cccn2c(NC(=O)c3ccccc3F)c(-c3ccccc3)nc12,–,inactive: 3.73%
CC(C)(C)c1ccc(-n2ncc3c2CCCC3NC(=O)CCn2cncn2)cc1 (stereo not given),"inconclusive [inhibitor, single point]",–
COc1ccc(OC)c(NC(=O)N2CCCC(C(=O)c3ccccc3OC)C2)c1 (stereo not given),"inconclusive [inhibitor, single point]",–
COc1ccc(C(=O)c2cn(Cc3cccc(C)c3)c3cc4c(cc3c2=O)OCCO4)cc1OC,"inconclusive [inhibitor, single point]",–
COc1ccc(NC(=O)/C(Cl)=C(/Cl)S(=O)Cc2ccccc2)cn1 (stereo not given),active: 0.0206 µM,–
CCOc1nc(NCCC2=CCCCC2)nc(N2CCOCC2)n1,"inconclusive [inhibitor, single point]",–
CC1CCCCC1NC(=O)Cn1cnc2ccccc2c1=O (stereo not given),"inconclusive [inhibitor, full curve, poor fit]",–
CC(C)(C)S(=O)(=O)N1C[C@@H]2CC/C=C\C/C=C\2[C@H]1CCO,active: 13 µM,–
CCc1ccc(NC(=O)CN2C(=O)CCSc3ccc(S(=O)(=O)N4CCCC4)cc32)cc1,"inconclusive [inhibitor, single point]",–
Cc1c(Cl)cnc(NC(=O)COC(=O)c2cccc(S(=O)(=O)N3c4ccccc4CC3C)c2)c1Cl (stereo not given),"inconclusive [inhibitor, single point]",–
CCN(CC)c1ccc(NC(=O)CC2Oc3ccccc3NC2=O)c(C)c1 (stereo not given),"inconclusive [inhibitor, single point]",–

SMILES,Potency,"activity change, negative = growth inhibition"
CC(C)Nc1nnc(SCC(=O)c2c[nH]c3ccccc23)s1,–,inactive: -18.8%
Cc1ccc(N2C(=O)C3C4C=CC(CNC(=S)Nc5ccc(F)cc5)(O4)C3C2=O)cc1 (stereo not given),"inconclusive [inhibitor, single point]",–
COc1cc(C(=S)N2CCCC2)ccc1OC(=O)c1ccc(Cl)cc1[N+](=O)[O-],"inconclusive [inhibitor, single point]",–
CC(=O)/C(C#N)=C1\NC(=O)C(Cc2ccccc2C)S1 (stereo not given),"inconclusive [inhibitor, full curve]",–
COc1cc(NC(=O)Nc2nc(C(N)C(C)C)cs2)cc(OC)c1OC (stereo not given),"inconclusive [inhibitor, single point]",–
O=C(C1=C(O)C(=O)N(c2nc3ccc(Cl)cc3s2)C1c1ccco1)c1ccco1 (stereo not given),"inconclusive [inhibitor, full curve]",–
COC(=O)c1ccccc1NC(=O)c1cc(=O)c2ccc(C)c(C)c2o1,–,inactive: -15.4%
O=C(N=C1SC2CS(=O)(=O)CC2N1c1ccccc1)c1cccc([N+](=O)[O-])c1 (stereo not given),–,inactive: -19.1%
COc1ccc(F)cc1S(=O)(=O)N1CCN(C(=O)c2ccco2)CC1,–,inactive: 12.5%
CCN(CC)CCNC(=O)Cn1ncc2c3ccccc3n(Cc3ccccc3C)c2c1=O,"inconclusive [inhibitor, single point]",–
Cc1ccc(-c2noc(CCC(=O)Nc3cccc(C(=O)NC4CC4)c3)n2)cc1,–,inactive: -7.82%
COc1ccc2[nH]cc(C(=O)CN3CCC(C)CC3)c2c1,–,inactive: -12.5%
Cc1ccc(N(C(=O)c2cccc(C)c2)S(=O)(=O)c2ccc(Cl)cc2)cc1,"inconclusive [inhibitor, single point]",–
COc1ccc(CCNC(=O)Cn2ccc3cc(S(=O)(=O)N4CCCCC4)ccc32)cc1OC,"inconclusive [inhibitor, single point]",–
O=C(NC(=S)N1CCCCC1c1cccnc1)c1ccc(Br)cc1 (stereo not given),"inconclusive [inhibitor, single point]",–
COC(=O)c1cc(OC)c(OC)cc1NC(=O)C(C)c1ccc([N+](=O)[O-])cc1 (stereo not given),"inconclusive [inhibitor, single point]",–
O=C(COC(=O)Cc1ccccc1F)NCCNC(=O)COC(=O)Cc1ccccc1F,–,inactive: -4.37%
COc1cccc(CNC(=O)c2cc(-c3cccc(OC)c3)n[nH]2)c1,"inconclusive [inhibitor, single point]",–
C=CCNC(=S)NNC(=O)c1ccc(OCC)cc1,"inconclusive [inhibitor, partial curve, poor fit]",–
CNc1nc(-c2c(C)[nH]c3ccc(OC)cc23)cs1,–,inactive: 0.534%
COC(=O)c1sccc1NC(=S)Nc1ccc(C)cc1,–,inactive: 9.55%
COc1ccc(NC(=O)c2ccccc2OCC(=O)Nc2ccc(Br)cc2)cc1,"inconclusive [inhibitor, single point]",–
